# Results as given in PubChem BioAssay AID588692 (Broad Institute, 2011).
# About 830 (0.23%) of roughly 360,000 compounds were called active. Inconclusive means that the source gave no clear call. Such entries were picked first, then a sample of the others.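 Rule for the calls: active = mean luciferase reporter signal, scaled so untreated is 0 and the glycosylation-blocking control 100, at or above a set limit in every replicate; inconclusive = mean reaches the limit but not every replicate does; inactive = mean below the limit.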
# Experiment: increase of ERlucT glycosylation luciferase signal, primary screen, N-linked glycosylation inhibitor project, D54 ERlucT cells, luminescence, set 2 (AID 588692);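 note: luciferase carries N-glycosylation sites so blocking glycosylation raises the light; 0% = median of neutral control wells and 100% = median of 100 nM tunicamycin wells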
# Details: 24 h, at 12.5 µM, stronger effect = higher value, percent of 100 nM tunicamycin response
row,SMILES,reporter increase
1,N#C/C(=C/c1ccc(N2CCOCC2)o1)c1ccc(Br)cc1,inconclusive: 25.1%
2,COc1cc2nc(NC(=O)c3ccc(F)cc3Cl)sc(=O)c2cc1OC,inconclusive: 26.4%
3,COc1cc(/C=C/C(=O)c2ccc(Cl)s2)cc(OC)c1O,inconclusive: 30.2%
4,Cc1cnc(NC(=O)C2CC(=O)N(c3cccc(Cl)c3)C2)s1 (configuration not stated),inconclusive: 25.3%
5,Cc1cccc2c1NC(=O)/C2=C\C(=O)c1cccs1,inconclusive: 35.8%
6,Cc1ccc(C(C)C)c(OCc2nnc(SCC(=O)Nc3ncc(C)s3)n2C)c1,inconclusive: 44.7%
7,Cc1ccc(-n2nc(C)c(NC(=O)CCl)c2C)cc1,active: 55.4%
8,Cc1[nH]c(C)c(C(=O)/C=C/c2ccc([N+](=O)[O-])cc2)c1C,active: 42.1%
9,Cc1ccc(NC(=O)C2C(=O)N(CCO)C3(C)CC2c2ccccc2O3)cc1 (configuration not stated),inactive: -6.09%
10,CCc1cc2c(=O)n(Cc3ccco3)c(SCc3c(C)noc3C)nc2s1,inconclusive: 30%
11,Cn1cc(C(=O)N/N=C/C(Br)=C\c2ccccc2)ccc1=O,inconclusive: 27.7%
12,O=C(CNC(=O)N1CC(=O)Nc2ccccc21)NCCCc1ccccc1,active: 27.3%
13,CC(=O)Nc1sc(C)c(C)c1C(=O)OCC(=O)N(CC(C)C)c1c(N)n(Cc2ccccc2)c(=O)[nH]c1=O,inconclusive: 65.6%
14,O=C(Oc1ccc(Br)cc1C(=O)/C=C/c1ccccc1F)c1ccco1,inconclusive: 26%
15,COc1cc(-c2nccc3cc4c(cc23)OCO4)cc(OC)c1OC,inconclusive: 34.4%
16,COc1ccc(OC)c(C2c3[nH]c4ccccc4c3C[C@H]3C(=O)N(C4CC4)CC(=O)N23)c1 (some centres not stated),inactive: 0.29%
17,CCOC(=O)/C(=C\c1ccc(OC(F)F)cc1)C1=Nn2c(nnc2-c2ccc(Cl)cc2)SC1,inconclusive: 41.3%
18,Cc1onc(C(=O)Nc2cccc(C(F)(F)F)c2)c1[N+](=O)[O-],inconclusive: 27.5%
19,CCn1ncc(C2=NOC(C(=O)NCc3ccccc3)C2)c1C (configuration not stated),inconclusive: 25.7%
20,Oc1cccc(Nc2c3ccccc3nc3ccccc23)c1,active: 62.2%
21,COc1cc2c(C#CCCO)c(-c3ccsc3)oc(=O)c2cc1OC,inconclusive: 25.9%
22,CCC1CCCCN1C(=O)c1cc(COc2ccc3ncccc3c2)on1 (configuration not stated),inactive: -1.39%

row,SMILES,reporter increase
1,COc1cccc(C(N)c2nc(-c3csc4ccccc34)cs2)c1 (configuration not stated),inconclusive: 27.3%
2,CCc1ccccc1NC(=O)Cn1nnc(C(=O)NCc2cccs2)c1N,inconclusive: 26%
3,O=C(Nc1ccc(NC(=O)c2cccs2)cc1)c1ccco1,inactive: -0.905%
4,CCOc1ccc(OCC)c(NC(=O)c2nnn(CC(=O)Nc3cc(C)cc(C)c3)c2N)c1,inconclusive: 29.8%
5,COc1cc(C(C[N+](=O)[O-])c2c(N)n(C)c(=O)n(C)c2=O)ccc1O (configuration not stated),inconclusive: 29%
6,COc1ccc(CNC(=O)c2cccc3c(-c4cccc(C(N)=O)c4)coc23)cc1OC,active: 59.8%
7,O=C(c1ccccc1NS(=O)(=O)c1ccc(F)cc1)N1CCc2ccccc21,inconclusive: 58.7%
8,CC(=O)NC(=C(Cl)Cl)S(=O)(=O)c1ccccc1,inconclusive: 28.3%
9,C(=NNc1ccc2ccccc2n1)c1ccccn1,inactive: -19%
10,CC(C)(C)OC(=O)N1CCN(c2ccc(NC(=O)Cn3nnc(-c4ccccc4)n3)cc2)CC1,inconclusive: 31.5%
11,C/C(CC(=O)NCc1ccc(Cl)cc1)=N\NC(=O)COc1ccc(C)cc1Br,inconclusive: 29.3%
12,C#CC[N+](C)(C)CCCCCCCCC,active: 29.9%
13,Oc1ccc(/C=N/Nc2cc(N3CCOCC3)nc(N3CCOCC3)n2)cc1O,inactive: -1.9%
14,CCOc1ccc(S(=O)(=O)Nc2ccc3c(c2)n(C)c(=O)n3C)cc1,inconclusive: 25.6%
15,CCOc1ccccc1NC(=O)Cn1nnc(C(=O)NCc2ccc3c(c2)OCO3)c1N,inconclusive: 26.5%
16,O=C(CCN1CCCCC1)N1CCc2c([nH]c3ccccc23)C1c1cccnc1 (configuration not stated),inactive: -2.43%
17,CCN1CCN(S(=O)(=O)c2cc(OCC(=O)NC3CCCCC3)c(C)cc2Cl)CC1,inactive: -3.75%
18,Clc1ccc(C2=Nn3c(nnc3-c3cc(-c4ccccc4)n[nH]3)SC2)cc1,inconclusive: 28.6%
19,CCN(CC(=O)NCc1ccc(F)cc1)C(=O)/C=C/c1ccc(OC)c(S(=O)(=O)NC(C)C)c1,inconclusive: 25.9%
20,CC1(C(=O)NCc2cccs2)Cc2c(-c3ccc(C(N)=O)cc3)ccnc2O1 (configuration not stated),inconclusive: 26.1%
21,Cn1cnnc1Sc1ccc(/C=C/C(=O)c2ccc(O)cc2)cc1[N+](=O)[O-],inconclusive: 27.5%
22,CCc1nc(SCC(=O)c2ccc3c(c2)OCCO3)c2ccccc2n1,inconclusive: 25.4%

row,SMILES,reporter increase
1,Cc1nnc(C)n1/N=C/c1cc(Br)cc(Br)c1O,inactive: -0.319%
2,O=C(Nc1ccccc1O)c1ccc(NC(=O)C2CC2)cc1,inconclusive: 25.3%
3,Cc1cnc(C(=O)OCC(=O)NC2CCCCCCC2)cn1,inconclusive: 62.8%
4,COC(=O)CSc1nc(N)c2c3c(sc2n1)C(c1ccccc1)SC(c1ccccc1)C3 (configuration not stated),inconclusive: 25.7%
5,CC(C)c1ccccc1NC(=S)NN(Cc1ccccc1)c1ccccc1,inactive: -1.16%
6,CCn1c(=O)c([N+](=O)[O-])c(Cl)c2ccccc21,inconclusive: 33%
7,CC1CCN(S(=O)(=O)c2cc(C(=O)N3CCN(c4ccccc4)CC3)ccc2Br)CC1,inactive: -2.88%
8,COc1ccc(OC)c(N(CC(=O)Nc2cccc3ccccc23)S(C)(=O)=O)c1,inconclusive: 26.2%
9,COC(=O)C(=Cc1ccc(-c2ccsc2C(=O)OC)o1)C(=O)OC,active: 35.1%
10,O=C1CCC/C=C/C[C@H](CC(=O)N(CCO)Cc2ccccc2)C(=O)N[C@@H](Cc2ccccc2)CO1,inactive: 2.32%
11,CCC(=NCCc1c(C)[nH]c2ccc(OC(F)(F)F)cc12)C1=C(O)CC(c2ccccc2)CC1=O (configuration not stated),inconclusive: 33.3%
12,COc1ccc(NC(=O)C2Cc3c(-c4cccc(C(C)=O)c4)ccnc3O2)cn1 (configuration not stated),inconclusive: 25.6%
13,CCC(C)Sc1cc(-c2nc3ccc(C)cn3c2NCc2ccccc2)ccc1OC (configuration not stated),inconclusive: 28.9%
14,CCCCCCCCCCCCN1[C@@H](CC(=O)OC)c2cc(C(F)(F)F)ccc2S1(=O)=O,inactive: 2.44%
15,CCc1nnc2n1N=C(c1ccc(OC)cc1)CS2,active: 36.9%
16,CSCCC(NC(=O)COc1ccccc1)C(=O)N(C)CC(=O)Nc1c(C)cccc1C (configuration not stated),inactive: -1.55%
17,Nc1nc(CN2CCN(Cc3ccccc3)CC2)nc(Nc2ccc3c(c2)OCCO3)n1,active: 47%
18,CC(C)/C=C1\CC/C(=C\c2cccnc2)C1=O,inconclusive: 30.6%
19,Nc1nc(=S)c2[nH]cnc2[nH]1,inconclusive: 32.9%
20,CCc1cccc(CC)c1NC(=O)/C(C#N)=C/c1ccccc1C(F)(F)F,active: 69.4%
21,COc1cc(-c2cc(-c3ccc(O)cc3)nc(N)c2C#N)ccc1O,inconclusive: 31.8%
22,COc1ccc([C@@H]2[C@@H]3C(=O)N(C(C)(C)C)C(=O)[C@@H]3[C@]3(Cc4ccccc4)C(=O)N(c4cccc(Cl)c4)C(=O)N23)cc1,inconclusive: 28.4%

row,SMILES,reporter increase
1,Cc1cc2ccccn2c1C(=O)c1ccc([N+](=O)[O-])o1,inconclusive: 27.5%
2,OCCCCCN=c1cc(-c2ccccc2)oc2ccc(Cl)cc12,active: 50.9%
3,N#CCC(CNc1ncc(C(F)(F)F)cc1Cl)OC(=O)c1ccc(Cl)cc1Cl (configuration not stated),active: 30%
4,C#CCN(C[C@@H]1[C@@H](OC(=O)NCC2CCCCC2)[C@@H](OC(=O)NCC2CCCCC2)Cn2c(=O)ccc(=O)n21)S(=O)(=O)c1ccc(C)cc1,inactive: -19.7%
5,O=C(Nc1ccccc1)O/N=C/c1ccc(F)cc1,inactive: -4.77%
6,O=C(Oc1ccc(Cl)c2cccnc12)c1cccnc1,inactive: 8.84%
7,Cc1ccc(NC(=O)Cn2nc(C)c3ccccc3c2=O)cc1F,inactive: -0.954%
8,COc1ccccc1OCC(=O)NNC(=O)c1ccoc1C,inconclusive: 28.7%
9,Cn1cnc([N+](=O)[O-])c1S(=O)(=O)c1cccc(Cl)c1,inconclusive: 25.4%
10,O=C(Cn1c(=O)n(CC2CCCO2)c(=O)c2ccccc21)c1ccc(Cl)c(Cl)c1 (configuration not stated),inactive: -0.434%
11,CC(N)=Nc1ccc([N+](=O)[O-])cc1,inactive: 3.81%
12,COc1ccc(-c2coc3cc(O[C@@H]4O[C@H](CO)[C@@H](O)[C@H](O)[C@H]4O)c(OC)cc3c2=O)cc1,inactive: 2.26%
13,Cc1cc(C)c2nc(NC(=O)c3ccc([N+](=O)[O-])o3)sc2c1,inactive: 16.2%
14,O=C(NCCCn1ccnc1)c1cc(-c2cccs2)on1,active: 155%
15,COc1ccc(CN2C(=O)C3C4C=CC(C4)C3C2=O)cc1 (configuration not stated),inactive: 0.495%
16,O=C(Nc1cccc(-c2cn3ccccc3n2)c1)c1cccc(Cl)c1,inconclusive: 25.6%
17,C=CCn1c(-c2ccc(N)cc2)nc2ccccc21,inactive: 1.23%
18,CCc1ccc(NC(=O)c2n[nH]c(=O)c3ccccc23)cc1,inactive: -2.8%
19,COc1ccccc1N1CCN(c2nc(C)nc3c2oc2ccccc23)CC1,inconclusive: 36.9%
20,COc1ccc(OC)c(-c2cc(-c3cccnc3)nc(N)c2C#N)c1,inconclusive: 29%
21,COC(=O)c1cccc(-c2ccc(C(c3c(C)[nH][nH]c3=O)c3c(C)[nH][nH]c3=O)o2)c1,inconclusive: 26.9%
